Source: patent publication US20230312682A1 (published 2023)
Changes are numbered by the printed parent chain. Names and notes keep the numbering of the source.

B1: SIRP6-IgG4 (Fc fusion)
chain: EEELQVIQPDKSVSVAAGESAILHCTLTSLLPVGPIQWFRGAGPARQLIYNQKEGHFPRVTTVSDATKRSNMDFSISISNITPADAGTYYCVKFRKGSPDTEFKSGAGTELSVRAKPSGGGGS[sequence of human IgG4 Fc with S228P (EU numbers) omitted]
B2: SIRP6-IgG4-V6L + H56R + A66G (Fc fusion)
chain: B1 chain with V6L, H56R, A66G
B3: SIRP6-IgG4-V6L + H56R + A66G + K53R (Fc fusion)
chain: B1 chain with V6L, K53R, H56R, A66G
notes: also called SIRP10-IgG4; SIRP1O-IgG4
B4: SIRP6-IgG4-V6L (Fc fusion)
chain: B1 chain with V6L
B5: SIRP6-IgG4-V6L + H56R (Fc fusion)
chain: B1 chain with V6L, H56R
B6: Mutant-I31L + V27L (Fc fusion)
chain: EEELQVIQPDKSVSVAAGESAILHCTLTSLLPVGPIQWFRGAGPARELIYNQKEGHFPRVTTVSESTKRENMDFSISISNITPADAGTYYCVKFRKGSPDTEFKSGAGTELSVRAKPSGGGGS[sequence of human IgG1 Fc omitted]
notes: SIRP-Fc-IgG1 mutant, IgG1 Fc; also called M27; Mutant-131L + V27L
B7: Mutant-I31L + V27L + E65D + S66A + E47Q + E70S (Fc fusion)
chain: B6 chain with E47Q, E65D, S66A, E70S
notes: SIRP-Fc-IgG1 mutant, IgG1 Fc; also called M33; SIRP6
B8: Mutant-I31L + V27L + L4V + Q5K (Fc fusion)
chain: B6 chain with L4V, Q5K
notes: SIRP-Fc-IgG1 mutant, IgG1 Fc; also called M28
B9: mSIRP-Fc-IgG1 (Fc fusion)
chain: TEVKVIQPEKSVSVAAGDSTVLNCTLTSLLPVGPIRWYRGVGQSRQLIYSFTTEHFPRVTNVSDATKRSNLDFSIRISNVTPEDAGTYYCVKFQRGSPDTEIQSGGGTEVYVLAKGGGGS[sequence of human IgG1 Fc omitted]
notes: also called wild-type mouse SIRPα-Fc fusion protein
B10: Mutant-I31L + V27L + L4V + Q5K + E1# + E2T + E65D + S66A (Fc fusion)
chain: TEVKVIQPDKSVSVAAGESAILHCTLTSLLPVGPIQWFRGAGPARELIYNQKEGHFPRVTTVSDATKRENMDFSISISNITPADAGTYYCVKFRKGSPDTEFKSGAGTELSVRAKPSGGGGS[sequence of human IgG1 Fc omitted]
notes: SIRP-Fc-IgG1 mutant, IgG1 Fc; also called M30
B11: Mutant-I31L + V27L + L4V + Q5K + E1# + E2T (Fc fusion)
chain: B10 chain with D64E, A65S
notes: SIRP-Fc-IgG1 mutant, IgG1 Fc; also called M29
B12: Mutant-I31L + V27L + L4V + Q5K + E1# + E2T + E65D + S66A + E47Q (Fc fusion)
chain: B10 chain with E46Q
notes: SIRP-Fc-IgG1 mutant, IgG1 Fc; also called M31; Mutant-131L + V27L + L4V + Q5K + E1# + E2T + E65D + S66A + E47Q
B13: Mutant-I31L + V27L + L4V + Q5K + E1# + E2T + E65D + S66A + E47Q + E70S (Fc fusion)
chain: B10 chain with E46Q, E69S
notes: also called M32
B14: SIRP6-IgG4-A66G (Fc fusion)
chain: B1 chain with A66G
notes: Site-directed mutant of SIRP6-IgG4 (position 66 is A in SIRP6 after S66A)
B15: SIRP6-IgG4-A66L (Fc fusion)
chain: B1 chain with A66L
notes: Site-directed mutant of SIRP6-IgG4
B16: SIRP6-IgG4-A66T (Fc fusion)
chain: B1 chain with A66T
notes: as for B15
B17: SIRP6-IgG4-H56N (Fc fusion)
chain: B1 chain with H56N
notes: as for B15
B18: SIRP6-IgG4-H56Q (Fc fusion)
chain: B1 chain with H56Q
notes: as for B15
B19: SIRP6-IgG4-H56R (Fc fusion)
chain: B1 chain with H56R
notes: as for B15
B20: SIRP6-IgG4-K53R (Fc fusion)
chain: B1 chain with K53R
notes: as for B15
B21: Mutant-E65D + S66A (Fc fusion)
chain: B6 chain with L27V, L31I, E65D, S66A
notes: SIRP-Fc-IgG1 mutant; also called M16
B22: Mutant-F103I + K104Q (Fc fusion)
chain: B6 chain with L27V, L31I, F103I, K104Q
notes: SIRP-Fc-IgG1 mutant; also called M23
B23: Mutant-N51S + Q52F + K53T + E54T + G55E (Fc fusion)
chain: B6 chain with L27V, L31I, N51S, Q52F, K53T, E54T, G55E
notes: SIRP-Fc-IgG1 mutant; also called M14
B24: Mutant-P44Q + A45S (Fc fusion)
chain: B6 chain with L27V, L31I, P44Q, A45S
notes: SIRP-Fc-IgG1 mutant; also called M12
B25: SIRP6-IgG4-V6L + H56N (Fc fusion)
chain: B1 chain with V6L, H56N

Target: T1, CD47-His (human, UniProt Q08722 partial chain)
T1 construct: also called Human CD47-His; SIRPα-Fc fusion protein's ligand CD47-His
Assay: ELISA, plate coated with CD47-His, anti-human Fc-HRP detection
Procedure: (§1) Method: Human CD47-His prepared in Example 1.3 was diluted to 100 ng/mL with a sodium carbonate buffer, and then the dilution was added to a microplate at 100 μL per well. The plate was incubated at room temperature for 2 h and washed with PBST. The plate was blocked by adding PBST containing 1% bovine serum albumin (BSA) to each well and incubated at room temperature for 1 h. The plate was washed twice with PBST, and serially diluted antibodies or fusion proteins were added. The plate was incubated for half an hour and washed twice with PBST. A properly diluted HRP-labeled goat anti-human (Fc-Specific) secondary antibody was added, and the plate was incubated for half an hour. After the plate was washed, a color developing solution was added for color development, and the color development was terminated with a stop solution. The OD450 was read using on a microplate reader. The data were analyzed in GraphPad Prism 6 and plotted, and EC₅₀ was calculated.

| Binder | EC50 [nM] | Top [OD450] |
| --- | --- | --- |
| B1 | 0.0555 | 1.01 |
| B2 | 0.0363 | 1.48 |
| B3 | 0.0344 | 1.64 |

Target: T1, CD47-His
Assay: as above
Remark: another data set of the same source
Procedure: as §1

| Binder | Top [OD450] | EC50 [nM] |
| --- | --- | --- |
| B1 | 1.54 | – |
| B4 | 1.63 | 0.0429 |
| B5 | 1.7 | 0.0453 |
| B2 | 1.77 | 0.0339 |

Target: T2, CD47 on the surfaces of cells (human, UniProt Q08722)
T2 construct: whole, on cells; The cell type is named in the assay or readout of each row; also called CD47 on the surfaces of Daudi cells; CD47 on the surface of a cell
Assay: flow cytometry on Daudi cells, FITC anti-human Fc
Procedure: The binding capacity of the prepared SIRP-Fc-IgG1 mutants to CD47 on the surfaces of Daudi cells (human lymphoma cells) was determined by flow cytometry. Experimental procedure: After being counted, Daudi cells were inoculated into a 96-well round-bottom culture plate at 2E5 cells/150 μL by using a PBS solution containing 1% bovine serum albumin (BSA). To the 96-well plate described above were added 50 μL of SIRPα-Fc fusion protein mutants serially diluted with the PBS solution. The plate was incubated at room temperature for 1 h and then centrifuged, and the supernatant was discarded. Then the cells were washed twice with PBS. An FITC-labeled goat anti-human (Fc-Specific) antibody (1:1000 diluted with PBS containing 1% BSA) was added. The plate was incubated at room temperature for half an hour and centrifuged, and the cells were washed and then tested for mean fluorescence intensity (MFI) in the FITC channel on a flow cytometer (CytoFLEX Cytometer System, purchased from Beckman Coulter). The experimental data were processed using the software provided with the flow cytometer, and the mean fluorescence intensity was calculated. The data were analyzed and plotted in GraphPad Prism 6, and EC₅₀ was calculated.

| Binder | EC50 [nM] | Height of top plateau [MFI] |
| --- | --- | --- |
| B6 | 0.208 | – |
| B7 | 0.132 | – |
| B8 | 0.211 | – |
| B9 | 1.2 | 2580 |
| B10 | 0.154 | 3780 |
| B11 | 0.212 | – |
| B12 | 0.135 | 3690 |
| B13 | 0.139 | – |

Target: T1, CD47-His
Assay: ELISA, plate coated with CD47-His, anti-human Fc-HRP detection
Remark: another data set of the same source
Procedure: as §1

| Binder | EC50 [nM] | Top [OD450] | Height of top plateau [OD450] |
| --- | --- | --- | --- |
| B1 | 0.0478 | 1.53 | – |
| B14 | 0.0434 | 1.62 | – |
| B15 | 0.0508 | 0.913 | – |
| B16 | 0.0748 | 1.39 | – |
| B17 | 0.0431 | 1.63 | – |
| B18 | 0.0641 | 1.44 | – |
| B19 | 0.051 | 1.6 | – |
| B20 | 0.0384 | 1.7 | – |
| B4 | 0.0347 | 1.71 | – |
| B9 | 0.126 | – | 0.579 |
| B21 | 0.122 | – | 0.152 |
| B22 | 1.89 | – | 0.0881 |
| B23 | 0.456 | – | 0.054 |
| B24 | 0.187 | – | 0.0783 |

Target: T2, CD47 on the surfaces of cells
Assay: cell-based or functional assay

| Binder | ADCC on Daudi cells with human PBMCs, EC50 [nM] | ADCC on Daudi cells with human PBMCs, Top (highest degree of ADCC by curve fitting) |
| --- | --- | --- |
| B7 | 0.0781 | 52.5 |
| B1 | 583 | – |

Target: T1, CD47-His
Assay: ELISA, plate coated with CD47-His, anti-human Fc-HRP detection
Remark: another data set of the same source
Procedure: as §1

| Binder | EC50 [nM] | Top [OD450] |
| --- | --- | --- |
| B1 | 0.0545 | 1.54 |
| B4 | 0.0429 | 1.63 |
| B25 | 0.0453 | 1.67 |
| B5 | 0.0393 | 1.76 |

Target: T2, CD47 on the surfaces of cells
Assay: cell-based or functional assay
Remark: another data set of the same source

| Binder | ADCP of Daudi cells by human macrophages, EC50 [nM] | ADCP of Daudi cells by human macrophages, Top (highest degree of ADCP by curve fitting) | ADCP of Jurkat cells by human macrophages, EC50 [nM] | ADCP of Jurkat cells by human macrophages, Top (highest degree of ADCP by curve fitting) |
| --- | --- | --- | --- | --- |
| B7 | 0.067 | 25.6 | 0.14 | 47.8 |
| B1 | 0.092 | 27.6 | 0.077 | 40.7 |

Target: T1, CD47-His
Assay: SPR (Biacore 8K), captured on Protein A chip, CD47-His as analyte
Procedure: Biacore is a method commonly used for molecular interaction analysis based on the principle of surface plasmon resonance (SPR for short). Here, Biacore was used to determine the affinity of the SIRP mutants described above and anti-CD47 antibodies for the extracellular end of CD47. Experimental method and procedure: The SIRP mutant or anti-CD47 antibodies were diluted to a concentration of 1 μg/mL with HBS-EP⁺ buffer (pH 7.4, purchased from Cytiva, catalog No. BR-1006-69). […] A 6 M solution of guanidine hydrochloride was used as a regeneration buffer. Sensor Chip Protein A (purchased from Cytiva, catalog No. 29-1275-55) was used to capture antibody on Biacore 8K (purchased from GE Healthcare). Then CD47-His was used as an analyte and allowed to flow over the chip, and an association-dissociation curve was obtained. After the chip was regenerated with the regeneration buffer, another cycle was carried out. The data were analyzed using Biacore 8K Evaluation Software.

| Binder | Kd [nM] | koff [s⁻¹] | kon [M⁻¹ s⁻¹] |
| --- | --- | --- | --- |
| B1 | 0.225 | 0.000377 | 1.68e+06 |
| B3 | 0.0451 | 7.9e-05 | 1.75e+06 |
